# Data taken from article PMC4336329 (PLoS ONE, 2015).
# In all, about 310,000 compounds went through this assay and about 2,200 (0.71%) showed an effect of 50% or more. The effect is printed as a negative number. This is one part of the list.
# Target: human ether-à-go-go-related gene (hERG) potassium channel (human, UniProt Q12809)
# Assay: primary screen, population patch clamp on CHO cells stably expressing hERG
# Sequence of human ether-à-go-go-related gene (hERG) potassium channel (Q12809 whole entry, looked up): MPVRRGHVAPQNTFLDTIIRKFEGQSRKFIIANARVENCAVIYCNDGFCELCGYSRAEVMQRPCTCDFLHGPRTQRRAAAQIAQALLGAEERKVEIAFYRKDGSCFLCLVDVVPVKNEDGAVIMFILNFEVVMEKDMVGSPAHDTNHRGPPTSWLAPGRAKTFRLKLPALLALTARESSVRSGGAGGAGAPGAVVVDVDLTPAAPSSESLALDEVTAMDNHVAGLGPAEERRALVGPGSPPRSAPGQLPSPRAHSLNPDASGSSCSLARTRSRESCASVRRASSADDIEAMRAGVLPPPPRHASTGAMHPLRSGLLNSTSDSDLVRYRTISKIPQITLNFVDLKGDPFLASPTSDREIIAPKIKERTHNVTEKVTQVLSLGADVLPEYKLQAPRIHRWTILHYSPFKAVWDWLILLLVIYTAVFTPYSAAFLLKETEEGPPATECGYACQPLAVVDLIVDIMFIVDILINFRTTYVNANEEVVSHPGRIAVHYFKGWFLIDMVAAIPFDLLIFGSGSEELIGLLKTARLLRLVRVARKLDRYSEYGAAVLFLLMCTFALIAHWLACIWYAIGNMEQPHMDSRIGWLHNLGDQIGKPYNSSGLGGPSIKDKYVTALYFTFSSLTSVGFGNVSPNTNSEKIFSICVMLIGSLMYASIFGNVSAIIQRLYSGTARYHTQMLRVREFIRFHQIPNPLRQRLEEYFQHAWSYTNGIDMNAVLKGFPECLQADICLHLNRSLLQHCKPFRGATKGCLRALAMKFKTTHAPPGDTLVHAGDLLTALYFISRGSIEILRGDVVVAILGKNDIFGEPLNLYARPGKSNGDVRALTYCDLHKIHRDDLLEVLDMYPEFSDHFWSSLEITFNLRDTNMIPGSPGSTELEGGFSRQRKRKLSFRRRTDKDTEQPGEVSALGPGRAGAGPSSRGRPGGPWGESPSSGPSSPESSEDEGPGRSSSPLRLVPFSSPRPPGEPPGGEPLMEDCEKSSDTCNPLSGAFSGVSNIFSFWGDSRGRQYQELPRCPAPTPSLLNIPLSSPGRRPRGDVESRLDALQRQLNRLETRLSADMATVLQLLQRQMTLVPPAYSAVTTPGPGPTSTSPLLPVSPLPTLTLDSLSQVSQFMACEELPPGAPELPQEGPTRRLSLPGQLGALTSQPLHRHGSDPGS
row,Compound,"hERG current change (%, negative = inhibition) at 1uM [%]"
1,CCN(c1ccccc1)S(=O)(=O)c1ccc(N2CCN(c3ccccc3O)CC2)nc1,6.62
2,COc1ccccc1N1CCN(c2cc(N3CCCC3)nc(C)n2)CC1,-26.7
3,Brc1ccc(C2=Nn3c(Cn4nnc5ccccc54)nnc3SC2)cc1,16.3
4,COc1ccc(C(=O)NC(=S)NC(C)(C)C)cc1Br,8.25
5,CCc1cccc(NC(=O)COC(=O)c2cc([N+](=O)[O-])ccc2N2CCOCC2)c1,2.57
6,Cc1ccc(S(=O)(=O)n2nc(C)cc2N)cc1,4.89
7,CCc1cccc2c(C(=O)CSc3nncn3-c3ccc(OC)cc3)c[nH]c12,16.2
8,CC(=O)Nc1ccccc1C(=O)N1CC(C)OC(C)C1 (centres unmarked),11.6
9,CN1C(=O)CC2(CC(=O)N(Cc3ccccc3)C2)C1=O (centres unmarked),12.3
10,COc1ccc(C(O)c2nc3ccccc3n2C(C)C)cc1 (centres unmarked),10
11,CC(NC(=O)Nc1ccc(Cl)cc1)c1ccccc1 (centres unmarked),18.3
12,Cc1cc(C)nc(SC2CCCCC2NS(=O)(=O)c2ccccc2)n1 (centres unmarked),4.72
13,CS(=O)(=O)N1CCCC(C(=O)Nc2ccccc2C(F)(F)F)C1 (centres unmarked),12.9
14,NS(=O)(=O)c1ccc(NC2=CC(=O)C(=O)c3ccccc32)cc1,14.2
15,COc1ccccc1NC(=O)NCCCCc1ccccc1,-0.0082
16,COC(=O)c1c(N)sc2c1CCN(c1ncc(C(F)(F)F)cc1Cl)C2,4.59
17,N#Cc1ccc(C(=O)N(Cc2ccco2)c2c(N)n(Cc3ccccc3)c(=O)[nH]c2=O)cc1,7.93
18,O=C(c1ccc(Cl)c(S(=O)(=O)N2CCOCC2)c1)N(c1ccccn1)C1CCCCC1,0.878
19,CCc1ccc(CN2CCC(n3nccc3NC(=O)c3ccccc3Cl)CC2)cc1,-92.3

row,Compound,"hERG current change (%, negative = inhibition) at 1uM [%]"
1,O=C(Cn1cnc2c(oc3nc4c(cc32)CCCC4)c1=O)Nc1ccccc1,10.2
2,Oc1ccc(-c2nc(-c3ccc(O)c(O)c3)cs2)cc1,11.3
3,Cl.N/C(=N\N=C/c1ccc(F)cc1)N/N=C\c1ccc(F)cc1,7.32
4,CCOc1cc(/C=N\O)cc(Cl)c1OCC,7.97
5,CC1CCCCC1Nc1nc2ccc(Cl)cc2n2cnnc12 (centres unmarked),11.9
6,CC1CCCCN1C(=O)CSc1nnc(-c2ccco2)n1C (centres unmarked),6.97
7,CC1CCCN(S(=O)(=O)c2cccc(C(=O)NCc3ccco3)c2)C1 (centres unmarked),-3.21
8,CC1=C(C(=O)OCC2CCCO2)C(c2ccc(Cl)c(Cl)c2)NC(=O)N1 (centres unmarked),4.78
9,CN(C)c1ccc(NC(=O)c2ccc3nsnc3c2)cc1,-9.11
10,O=C(CCCCn1c(=O)[nH]c2ccsc2c1=O)NCc1cccnc1,-0.633
11,O=C(NCCN1CCOCC1)C(=O)NCC1OCCN1S(=O)(=O)c1ccccc1 (centres unmarked),11.8
12,O=c1cc2c(nn1Cc1c(Cl)cccc1Cl)-c1ccccc1CC2,10
13,Nc1ncc(-c2nnnn2-c2ccc(Cl)cc2)c(-c2ccc(Cl)cc2)n1,3.94
14,Cc1ccc(NC(=O)CN(C)C(=O)COC(=O)c2oc3ccccc3c2C)cc1,12.3
15,O=C(COC(=O)Cc1ccc(Br)cc1)NCc1ccc(F)cc1,6.09
16,O=C(CSc1ncnc2c1cnn2Cc1ccccc1)Nc1ccc2c(c1)OCCO2,8.89
17,Cc1ccc(CNCc2cc(Cl)ccc2O)cc1.Cl,4.69
18,O=[N+]([O-])c1cc(-c2nnc(Nc3ccccc3)c3ccccc23)ccc1N1CCOCC1,3.9
19,CCO[C@@H]1OC(C(=O)N2CCOCC2)=C[C@H](c2ccc(C(F)(F)F)cc2)[C@H]1CCCO,10.3

row,Compound,"hERG current change (%, negative = inhibition) at 1uM [%]"
1,O=C(Nc1cc(C(F)(F)F)ccc1N1CCOCC1)c1cccnc1,-4.61
2,CCN(CC)S(=O)(=O)c1ccc(C(=O)OCC(=O)N2CCOCC2)cc1,25.9
3,CCOc1c(Br)cc(/C=C2\C(=O)N(CCC#N)N=C2C)cc1OC,12.8
4,COc1cc(/C=N/n2c(-c3ccccc3)n[nH]c2=S)cc(OC)c1O,24.4
5,CCn1c(SCC(=O)N(C)C)nc2cc(S(=O)(=O)N3CCCCC3)ccc21,8.72
6,Cc1ccc(/C(O)=C2/C(=O)C(=O)N(CC(=O)O)C2c2ccc([N+](=O)[O-])cc2)cc1 (centres unmarked),7.35
7,NNC(=O)CN1C(c2ccccc2)=Nc2ccc(Br)cc2C1c1ccccc1 (centres unmarked),0.332
8,Cc1ccc(CN(CC(=O)NC2CCCCC2)C(=O)c2csnn2)cc1,12.1
9,COc1ccc(C(C(=O)NC2CCCC2)N(C(=O)c2ccco2)c2ccc3c(c2)OCO3)cc1OC (centres unmarked),-9.48
10,CCCCCCC1/C(=N\NC(=O)c2ccccc2)CCC1C(=O)OC (centres unmarked),2.54
11,COc1cc(C(=O)Nc2ccc(S(=O)(=O)Nc3cnc4ccccc4n3)cc2)cc(OC)c1OC,16.1
12,Cc1cccc(N2CCN(C(=O)Cn3nc(Cc4ccncc4)c4ccccc4c3=O)CC2)c1C,3.71
13,O=C(COc1ccccc1Cl)N(Cc1ccco1)C1CCS(=O)(=O)C1 (centres unmarked),9.37
14,COCc1ccc(C(=O)N2CCCC(C(=O)c3ccc(SC)cc3)C2)s1 (centres unmarked),3.01
15,CCC(C)Sc1nnc(Cc2cc(=O)[nH]c(=O)[nH]2)n1-c1ccc(OC)cc1 (centres unmarked),14.6
16,c1cc(CNc2ccc(N3CCOCC3)cc2)ccn1,14.7
17,CCN(CC)CCN(Cc1cc2cc3c(cc2[nH]c1=O)OCO3)C(=S)NCc1ccco1,-10.4
18,CCC(=O)NCCCc1nc2ccccc2n1Cc1ccccc1F,-6.35
